Laboratory results reported in PubChem BioAssay AID485344 (National Center for Advancing Translational Sciences (NCATS), 2010).
About 6,900 (2%) of roughly 340,000 compounds were called active. Rule as the data show it: active = inhibition above about 30%; inactive = below that, where a call was filed. This is a selection; strong and weak results do not stand in their true shares. Entries without a call were filed so in the source.
Also: 0% is about no effect.

What follows are compounds tested against D(2) dopamine receptor (Homo sapiens) (UniProt P14416) (assay: HTS Assay for Allosteric Antagonists of the Human D2 Dopamine Receptor: Primary Screen for Antagonists). Conditions: HEK293 TREx D2 cells, calcium flux, dopamine EC80; at 10 µM; stronger effect = higher value.
Sequence of UniProt P14416 (P14416 whole entry, looked up): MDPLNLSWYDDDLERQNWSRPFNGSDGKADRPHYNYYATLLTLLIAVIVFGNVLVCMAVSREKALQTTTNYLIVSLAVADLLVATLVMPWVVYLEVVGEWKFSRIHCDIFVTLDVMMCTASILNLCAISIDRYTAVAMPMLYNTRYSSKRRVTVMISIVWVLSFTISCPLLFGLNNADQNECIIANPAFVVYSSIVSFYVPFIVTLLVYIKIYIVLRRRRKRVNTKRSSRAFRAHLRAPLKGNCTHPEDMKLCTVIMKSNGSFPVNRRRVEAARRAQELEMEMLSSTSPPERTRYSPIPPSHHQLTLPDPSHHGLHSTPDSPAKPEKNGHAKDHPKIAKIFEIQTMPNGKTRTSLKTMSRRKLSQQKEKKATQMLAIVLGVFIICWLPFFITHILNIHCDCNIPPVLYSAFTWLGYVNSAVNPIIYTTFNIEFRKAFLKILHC
Summary of the method: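 Antagonism is scored as inhibition of an EC80 dopamine-evoked calcium signal in a force-coupled, tetracycline-inducible HEK293 T-REx D2 line, with compound present 180 s before agonist.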
`CCS(=O)(=O)c1c(Nc2cc(C)ccc2C)sc(C(=O)c2ccccc2)c1N` was tested, and the inhibition was -15.1%. For `CC1(C)CC(=O)C(=Cc2cn(-c3ccccc3)nc2-c2ccc(Cl)cc2)C(=O)C1`, the inhibition was active: 32.3%. Work on `CC1=C(C(=O)Nc2ccccc2)C(c2cc(Br)ccc2F)n2ncc(C(=O)Nc3ccccc3)c2N1` (configuration not stated) yielded an inhibition of 13%. `Cc1ccc(C(=O)n2nc(C)c(S(=O)(=O)N3CCOCC3)c2C)cc1C` showed an inhibition of 8.33%. `Cc1ccc(NC(=O)c2nnn(CC(=O)Nc3ccc(C)c(Cl)c3)c2N)c(C)c1` gave an inhibition of 8.68%. For `COc1ccc(CNC(=O)c2cc3c(=O)n(C)c4ccccc4c3n2C)c(OC)c1`, the inhibition was 4.88%. `Cc1cc(C)c2oc(-c3ccc(C)c(NC(=O)/C=C/c4ccco4)c3)nc2c1` was tested, and the inhibition was 9.82%. In the case of `Cc1nc(N2CCCC2)ncc1C(=O)N1CCN(c2ccccc2F)CC1`, the inhibition is reported as -14.8%. In the case of `CC(C)C(=O)Nc1cccc(NC(=O)c2ccc([N+](=O)[O-])cc2Cl)c1`, the inhibition is reported as active: 39.3%. `COc1ccc(Cn2c(CO)cnc2SCc2cccc(C)c2)cc1` was tested, and the inhibition was -3.87%. With `CCN(CC(=O)Nc1c(F)cccc1F)C(=O)/C=C/c1cn(Cc2ccccc2)nc1-c1cccnc1` the inhibition was active: 32.3%. `COc1ccccc1N1CCN(C(=O)CCS(=O)(=O)c2cc(Br)cc3c2N(C(C)=O)CC3)CC1` gave an inhibition of -16.5%. With `C=CC[C@H]1Cc2c(cccc2[N+](=O)[O-])[C@H](CC=C)N1` the inhibition was active: 58.9%. With `Cc1cccc(N(CC(N)=O)C2SC(=O)N(Cc3cccc(C(=O)O)c3)C2=O)c1` (configuration not stated) the inhibition was -0.261%. With `CC(Cc1ccco1)NC(=O)c1ccc(C(F)(F)F)cc1` (configuration not stated) the inhibition was active: 32.2%. `Cc1c(-c2nnc(SCC(=O)Nc3ccc(Cl)cc3)o2)nnn1-c1ccc(F)cc1` was tested, and the inhibition was -13.8%. With `Cc1cc(Br)cc2c(C(=O)OCC(=O)c3ccccc3)cc(-c3ccccc3)nc12` the inhibition was 2.83%. With `CCOC(=O)C1CCCN(Cc2ccc(OCc3ccccc3)cc2)C1` (configuration not stated) the inhibition was active: 86.1%. `COc1ccccc1N1CCN(C(=O)c2cnc(N3CCOCC3)c3ccccc23)CC1` gave an inhibition of 12.7%. Work on `CCN1CCSc2ccc(C(=O)NCc3ccccc3Br)cc21` yielded an inhibition of 7.26%. `O=c1[nH]c(SCc2cccc(Cl)c2)nc2c1CCC2` gave an inhibition of 15.4%. Work on `COC(=O)c1ccc([C@H]2Nc3ccc(S(=O)(=O)Nc4cccc(C)c4)cc3[C@H]3C=CC[C@H]32)cc1` yielded an inhibition of 16.8%. `COCCNC(=O)CCCn1c(SCc2ccccc2Cl)nc2c(sc3ccccc32)c1=O` was tested, and the inhibition was 14.5%. `CCCCOc1ccc(C(=O)N(Cc2ccco2)Cc2ccco2)cc1` was tested, and the inhibition was 7.81%. In the case of `COc1ccccc1C1CC(=O)N(c2cccc(C(F)(F)F)c2)C2=C1C(=O)OC2` (configuration not stated), the inhibition is reported as -0.62%. `COC(=O)c1c(-c2ccccc2)c(-c2ccccc2)nn(C)c1=O` was tested, and the inhibition was -2.29%. `COc1ccc(-n2c(=O)c3c(c4cc(OC)ccc4n3C)n(CCC(C)C)c2=O)cc1` gave an inhibition of -3.04%. `COc1ccc(-n2c(=O)c3sc4ccccc4c3n(CC(=O)NC3CCCCC3)c2=O)cc1` was tested, and the inhibition was -9.18%. `CCOC(=O)C1CCCN(CC(O)COC(c2ccccc2)c2ccccc2)C1` (configuration not stated) was tested, and the inhibition was active: 33.4%. Compound `CC(C)c1ccc(N2C(=O)N(Cc3ccccc3Cl)c3ccccc3S2(=O)=O)cc1` has an inhibition of 6.31%. For `COc1ccc(OC)c(NC(=O)CNC(c2ccccc2)c2ccccc2)c1`, the inhibition was active: 31.3%. With `CC1CCN(CCOc2ccccc2-c2ccccc2)CC1` the inhibition was active: 75%. With `Cn1c(=O)[nH]c(=O)c2c1nc(N1CCOCC1)n2CCSc1nnnn1-c1ccccc1` the inhibition was active: 36.6%. `O=C(Nc1cc(C(F)(F)F)ccc1Cl)c1cnn(-c2ccccc2)c1-n1cccc1` gave an inhibition of -12.7%. Work on `CCOc1ccc(CCNC(=O)c2cnc3sc(N4CCCCC4)nn3c2=O)cc1` yielded an inhibition of -2.64%. In the case of `COC(=O)Cc1c(C)nc2nc(-c3ccc(C)cc3)[nH]n2c1=O`, the inhibition is reported as -13.6%. Work on `CCOc1cccc2sc(NC(=O)CS(=O)(=O)c3ccc(C)cc3)nc12` yielded an inhibition of 6.81%. In the case of `CCN(Cc1ccccc1)S(=O)(=O)c1ccc(F)c(C(=O)Nc2cc(C(F)(F)F)ccc2Cl)c1`, the inhibition is reported as 26.8%. Compound `COc1ccc(N2C(=O)CSC23C(=O)N(CC(N)=O)c2ccccc23)cc1` (configuration not stated) has an inhibition of 2.98%. `COc1cc(OC)c(NC(=O)N2CCCn3nc(C)cc32)cc1Cl` showed an inhibition of -1.66%. In the case of `COc1ccc(C(=O)Nc2ccc3c(c2)CCCN3C(=O)c2cccs2)c(OC)c1`, the inhibition is reported as -16.6%. `CCOc1ccc(Nc2nnc(-n3nc(C)cc3C)c3ccccc23)cc1` was tested, and the inhibition was 2.74%. Compound `Cc1cccc(-n2ccnc2SCC(=O)Nc2cccc3ccccc23)c1C` has an inhibition of 8.39%. `COc1ccc(-c2nnc(SCC(=O)NC3CCCCC3)nc2-c2ccc(OC)cc2)cc1` was tested, and the inhibition was -8.36%. `O=C(Cn1c(=O)n(Cc2ccc3c(c2)OCO3)c(=O)c2oc3ccccc3c21)Nc1ccccc1F` showed an inhibition of -16.8%. With `O=C(CSc1nc(O)c(C2CCCCC2)c(=O)[nH]1)N1CCOCC1` the inhibition was active: 42.7%. `CCN(C(=O)Cn1cnc2onc(-c3ccc(F)cc3)c2c1=O)c1ccc(OC)cc1` showed an inhibition of -5.93%.
